This is one part of the list.
tested on: T1, C. trachomatis L2/434/Bu expressing GFP (CTL2-GFP); parameters: species or system HeLa; C. trachomatis total inclusion area by high-content imaging, normalised to DMSO; details: total inclusion area; 28.5 h, 10 µM; inhibitor
T1 construct: L2/434/Bu GFP intracellular growth in HeLa cells
How it was run: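 High-content images of fixed, Hoechst-stained infected cultures supply inclusion area and count (growth) plus nuclei number (viability), complementing bulk GFP/resorufin fluorescence. MIC determination is unchanged from the primary assay.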

| SMILES | % of control remaining |
| --- | --- |
| O=C(C1CCCC1)N1CCCC(c2cc3cccnc3[nH]2)C1 (centres unmarked) [CBK284979] | 73.2874 |
| Cc1ccc2[nH]c(CNC(=O)c3cn[nH]c3C3CCCCN3)nc2c1 (centres unmarked) [CBK304741] | 37.6594 |
| CCOC(=O)c1ccc(NCc2c(O)ccc3oc4c(c23)CCCC4)cc1 [CBK160394] | 80.4307 |
| Nc1nnc(CC(=O)N/N=C/c2cc(Br)c(O)c(Br)c2O)s1 [CBK262131] | 90.6283 |
| OC1(c2ccccn2)CCN(CCc2ccccc2)CC1 [CBK282904] | 76.2296 |
| O=S(=O)(c1ccc(F)cc1)N1CCCC(c2nccnc2-c2ccc(F)cc2)C1 (centres unmarked) [CBK286136] | 86.4975 |
| Cc1nc(C)c(C(=O)NC(Cc2ccsc2)c2nccs2)s1 (centres unmarked) [CBK282822] | 115.962 |
| Cc1cccc(Nc2nc(N/N=C/c3c[nH]nc3-c3ccccc3)nc(N3CCC(C)CC3)n2)c1C [CBK262498] | 93.6106 |
| O=C(NCc1ccc(Cl)c(Cl)c1)C1(c2ccccc2)CCCC1 [CBK149528] | 65.6973 |
| Cc1ccc2oc(C(=O)N3CCN(CC(=O)N(C)C)CC3)c(C)c2c1 [CBK281423] | 90.7143 |
| NCC(=O)Nc1ccc(F)c(F)c1 [CBK046313] | 107.862 |
| CCc1nc2ccc(C(=O)N3CCCC(C(N)=O)C3)cn2c1N(CC)CCN(C)C (centres unmarked) [CBK146185] | 83.3414 |
| O=C(/C=C/c1ccc(Cl)cc1Cl)NC(=S)Nc1ccccc1F [CBK264332] | 104.968 |
| CCC(CC)C(=O)Nc1nc(OCCN2CCCC2=O)cnc1-c1ccc(Cl)cc1Cl [CBK145210] | 74.9245 |
| O=C(NC1CCCC1)c1ccc(-c2cnc3[nH]c(=O)n(Cc4ccc(Cl)cc4)c3n2)cc1 [CBK065039] | 97.7464 |
| Clc1ccc(CN2CCN(c3nccnc3OCC3COc4ccccc4O3)CC2)cc1 (centres unmarked) [CBK082786T] | 65.8145 |
| COc1ccccc1C(CC(=O)O)c1ccc2c(c1)OCO2 (centres unmarked) [CBK286971] | 118.782 |
| COc1ccc2[nH]c(C(=O)O)c(CCNC(C)=O)c2c1 [CBK260943N] | 96.1572 |
| CN1CCN(c2ccc([N+](=O)[O-])cc2/C=N/NC(=O)CCc2ccccc2O)CC1 [CBK263281] | 95.1251 |
| COc1ccc(C(=O)Nc2ccccc2N2CCN(C)CC2)c(OC)c1 [CBK269763] | 67.5743 |
| CC1(C)OC(NC2CC3CCC2C3)=NC1=O (centres unmarked) [CBK092237] | 75.2942 |
| Cc1sc2ncn(CC3(O)CCCNC3)c(=O)c2c1-c1ccc(F)cc1 (centres unmarked) [CBK307346] | 54.7824 |
| COc1ccc(C(=O)N2CCC3(CCCN(C(=O)c4cc(OC)c(OC)c(OC)c4)C3)C2)cc1OC (centres unmarked) [CBK131667] | 93.8637 |
| O=C(O)c1nc(/N=C/c2ccc(C#Cc3ccccc3)cc2)n[nH]1 [CBK261219] | 103.816 |
| CN(C)c1cccc(Nc2cc(-c3ccco3)ncn2)c1 [CBK091014] | 81.4578 |
| COc1ccc(CN(CCCN2CCOCC2)C(=O)NCc2ccc(C#N)cc2)cc1OC [CBK159125] | 101.04 |
| CCOc1ccccc1NC(=O)CSc1cnn[nH]1 [CBK270005] | 91.9537 |

| SMILES | % of control remaining |
| --- | --- |
| COc1cccc(CN2CCN(C(=O)N3CCCC3)[C@@H](C)C2)c1 [CBK285491] | 75.9126 |
| N=c1n(CCN2CCCCC2)c2ccccc2n1CC(=O)c1cccs1 [CBK278244B] | 103.671 |
| O=C(O)c1cc(S(=O)(=O)N2CCOCC2)c(Cl)cc1NC1CCCCC1 [CBK264576] | 101.393 |
| O=C(NCCNc1ccc(Cl)cc1[N+](=O)[O-])c1ccccc1Br [CBK263538] | 109.13 |
| Cc1ccc(-c2ncc(OCC3CCCN3C)nc2N)c(C)c1 (centres unmarked) [CBK145137] | 73.9191 |
| CC(C)(C)OC(=O)N1CCC(CNS(=O)(=O)c2cccc3cccnc23)CC1 [CBK086017] | 114.859 |
| Cc1cc(CN2CCN(c3nc(-c4ccccc4)nc4ccccc34)CC2)no1 [CBK296654] | 100.836 |
| Cc1c(NC(=O)c2ccc3c(c2)C(=O)N(Cc2ccco2)C3=O)cccc1C(=O)O [CBK268627] | 142.13 |
| Fc1ccc(-c2cn(-c3cncnc3)nn2)c(F)c1 [CBK112989] | 105.353 |
| CCC1CCC2(CC1)NC(=O)N(Cc1nc(-c3cccs3)no1)C2=O (centres unmarked) [CBK305005] | 114.507 |
| Cn1c(SCC(=O)c2ccc(Cl)cc2)nnc1-c1cnccc1C(F)(F)F [CBK067698] | 64.9333 |
| CCN1CCN(CCCOc2ccccc2Cc2ccccc2)CC1 [CBK267379G] | 83.176 |
| CC[C@@H]1COCCN1C(=O)c1sc2ccccc2c1Cl [CBK103641] | 93.5934 |
| CSCCCNC(=O)N1CCNC(=O)C1 [CBK155848] | 95.282 |
| COc1ccc2c(c1)C1(CC(=O)N(CCc3scnc3C)C1=O)C(=O)N2C (centres unmarked) [CBK075213] | 95.9825 |
| Cc1ccccc1CSc1nc2ccc([N+](=O)[O-])cc2[nH]1 [CBK267879] | 82.0633 |
| N#CCC(=O)Nc1ccc(F)c(Cl)c1 [CBK085905] | 80.6984 |
| Brc1cnc(OCc2ccccc2)nc1OCc1ccccc1 [CBK261274] | 105.716 |
| Cc1ccccc1C(=O)NCCNC(=O)c1nonc1N [CBK267677] | 87.8642 |
| NC(=O)c1ccccc1NC(=O)CN1CCN(Cc2cccc(Cl)c2)CC1 [CBK270320] | 79.9486 |
| Cc1ccc2c(c1)CCCN2C(=O)c1csc2c(C(F)(F)F)cc(N3CCOCC3)nc12 [CBK028367] | 66.0769 |
| O=C(c1cnccn1)N1CCC(Cc2ccccc2)CC1 [CBK200181] | 93.9066 |
| O=C(NCCc1ccc(O)cc1)c1ccc2[nH]ccc2c1 [CBK149063] | 92.868 |
| COc1cccc(CN2CCCC(NC(=O)c3ccccc3Cl)C2)c1 (centres unmarked) [CBK306774] | 67.5628 |
| CC(=O)Nc1ccc(-c2ccc3n(c2=O)C[C@H]2C[C@@H]3CN(C(=O)C3CCCCC3)C2)cc1 [CBK289188] | 112.56 |
| O=C(Cn1cc(C(=O)Nc2cc(F)ccc2N2CCCC2)ccc1=O)NC1CCCCC1 [CBK285981] | 113.618 |
| O=C(Nc1ccc2ncccc2c1)c1ccc(F)c(F)c1 [CBK159810] | 85.5294 |

| SMILES | % of control remaining |
| --- | --- |
| CCOC(=O)C1=C(C)NC(=O)NC1c1ccc(-c2ccccc2F)o1 (centres unmarked) [CBK263867] | 93.7298 |
| CCn1c(SC(C)C(N)=O)nc2ccc(Br)cc2c1=O (centres unmarked) [CBK306424] | 46.7854 |
| C1=CCC(CN(CCCn2ccnc2)Cc2cccnc2)CC1 (centres unmarked) [CBK283216] | 89.6573 |
| Cc1nc(C(Cc2ccsc2)NC(=O)C2CCCNC2)sc1C (centres unmarked) [CBK282228] | 116.975 |
| O=C(COc1ccc([N+](=O)[O-])cc1)Nc1ccc(S(=O)(=O)N2CCCCC2)cc1 [CBK265003] | 99.7977 |
| OC(CN1CCC(O)(c2ccc(F)cc2)CC1)c1ccc(F)cc1 (centres unmarked) [CBK282510] | 103.686 |
| C=CCn1c(COc2cccc3ccc(C)nc23)nnc1SC [CBK266608] | 81.9504 |
| O=C(c1ccccc1Br)N1CCN(c2ccc([N+](=O)[O-])c(NCc3cccnc3)c2)CC1 [CBK265735] | 132.24 |
| CN1Cc2ccccc2CC1C(=O)N1CCCC12CC=CC2 (centres unmarked) [CBK282838] | 122.329 |
| Cc1ccc(S(=O)(=O)NCCSc2nnc(N)s2)cc1 [CBK266300] | 94.2493 |
| Cn1ncc(N)c1C(=O)Nc1cccc(Cl)c1 [CBK270107] | 116.316 |
| COc1cc(CNc2cc(-c3cccc4oc5ccccc5c34)ncn2)cc(OC)c1OC [CBK091177] | 111.591 |
| N#Cc1cnc2c(-c3ccccc3)c(Cc3ccccc3)nn2c1N [CBK270191] | 124.542 |
| O=C1NC2(CCN(C(=O)c3cccs3)CC2)Oc2ccccc21 [CBK283998] | 64.757 |
| O=C(c1ccc(F)cc1)N1CCCC(c2nccnc2-c2cccc(C(F)(F)F)c2)C1 (centres unmarked) [CBK286142] | 96.319 |
| Cc1cc2ccccc2n2c(SCCC(=O)Nc3ccc(C(C)(C)C)cc3)nnc12 [CBK265639] | 99.1559 |
| CCCCOC(=O)c1ccc(NC(=O)c2cc(-c3ccco3)nc3c2c(C)nn3C)cc1 [CBK295313] | 92.1114 |
| CC1CCCN(C(=O)CCc2nc3sc4c(c3c(=O)[nH]2)CCCC4)C1 (centres unmarked) [CBK306073] | 100.035 |
| O=C(NCCn1nc2c(cc1=O)CCCCC2)c1ccccc1F [CBK282300] | 113.707 |
| Cc1cc(C)c(C)c(S(=O)(=O)NCCOCCO)c1C [CBK269153] | 103.346 |
| Cc1nc2c(c(=O)[nH]1)CCN(Cc1ccc(Cl)c(Cl)c1)C2 [CBK283969] | 93.4239 |
| CCN1CCN(c2ccc(NC(=O)c3ccc(-c4cc5ccccc5oc4=O)cc3)cc2Cl)CC1 [CBK266700] | 113.427 |
| COc1cc(/C=C(/C#N)c2ccc(C(=O)O)cc2)c([N+](=O)[O-])cc1OCc1ccccc1 [CBK268738] | 93.7509 |
| Cc1[nH]c(=O)c(C(=O)N(C)C(C)c2ccc(Cl)cc2)cc1-c1ccc(O)cc1 (centres unmarked) [CBK291225] | 93.7707 |
| CC(=O)Oc1ccc(NC(=O)C2CC(Cl)=CCC2C(=O)O)cc1C(=O)O (centres unmarked) [CBK265372] | 105.795 |
| CCCNC(=O)C1(Cc2ccccc2-c2cccs2)CCN(C(=O)c2ccccc2)CC1 [CBK285694] | 116.544 |
